Among the data in patent publication US20260048100A1 are EC50, Mo7e cell proliferation (CCK-8) and fold recovery of Mo7e proliferation activity against the uncleaved protein values, retold here.

In test [1] the target is receptor of IL-15 on the target cell (Mo7e cells). Nature of the test: cell-based or functional assay.
For test [2] the target is unchanged. Nature of the test: cell-based or functional assay. The source holds these as a separate data set.

Where two headings read alike, the source gives them in different places.

B1: LH02 fusion protein (Fc fusion)
chain: [human IgG1 Fc with changes not listed]ITCPPPMSVEHADIWVKSYSLYSRERYICNSGFKRKAGTSSLTECVLNKATNVAHWTTPSLKCIRDPALVHQRPAPPSTVTTAGVSGGSGGGGSGGGSGGGGSLQ[about 120 residues not listed]
Turning to B1, the EC50, Mo7e cell proliferation (CCK-8) turned out to be 2.74 nM in test [1] and 0.69 nM in test [2].

B2: LIC18 fusion protein after cleavage by urokinase (protein)
chain: ITCPPPMSVEHADIWVKSYSLYSRERYICNSGFKRKAGTSSLTECVLNKATNVAHWTTPSLKCIRDPALVHQRPAPPSTVTTAGVSGGSGGGGSGGGSGGGGSLQ[about 120 residues not listed]GSSGGSGGSGGSGLSGRSDNHGSSGGSGGSGGSG[human IgG4 Fc with S228P (EU numbers) not listed]
With B2, in test [2], the EC50, Mo7e cell proliferation (CCK-8) stood at 0.0449 µg/mL and the fold recovery of Mo7e proliferation activity against the uncleaved protein is over 400 fold.
